Out of some 310,000 compounds screened, about 14,000 (4.5%) showed an effect of 50% or more. The effect is printed as a negative number. Some of the results follow.
target: human ether-à-go-go-related gene (hERG) potassium channel (human, UniProt Q12809); assay: primary screen, population patch clamp on CHO cells stably expressing hERG
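Also: peak tail current of the secondary pulse compared with the same well before compound.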

Chain of human ether-à-go-go-related gene (hERG) potassium channel (Q12809 whole entry, looked up): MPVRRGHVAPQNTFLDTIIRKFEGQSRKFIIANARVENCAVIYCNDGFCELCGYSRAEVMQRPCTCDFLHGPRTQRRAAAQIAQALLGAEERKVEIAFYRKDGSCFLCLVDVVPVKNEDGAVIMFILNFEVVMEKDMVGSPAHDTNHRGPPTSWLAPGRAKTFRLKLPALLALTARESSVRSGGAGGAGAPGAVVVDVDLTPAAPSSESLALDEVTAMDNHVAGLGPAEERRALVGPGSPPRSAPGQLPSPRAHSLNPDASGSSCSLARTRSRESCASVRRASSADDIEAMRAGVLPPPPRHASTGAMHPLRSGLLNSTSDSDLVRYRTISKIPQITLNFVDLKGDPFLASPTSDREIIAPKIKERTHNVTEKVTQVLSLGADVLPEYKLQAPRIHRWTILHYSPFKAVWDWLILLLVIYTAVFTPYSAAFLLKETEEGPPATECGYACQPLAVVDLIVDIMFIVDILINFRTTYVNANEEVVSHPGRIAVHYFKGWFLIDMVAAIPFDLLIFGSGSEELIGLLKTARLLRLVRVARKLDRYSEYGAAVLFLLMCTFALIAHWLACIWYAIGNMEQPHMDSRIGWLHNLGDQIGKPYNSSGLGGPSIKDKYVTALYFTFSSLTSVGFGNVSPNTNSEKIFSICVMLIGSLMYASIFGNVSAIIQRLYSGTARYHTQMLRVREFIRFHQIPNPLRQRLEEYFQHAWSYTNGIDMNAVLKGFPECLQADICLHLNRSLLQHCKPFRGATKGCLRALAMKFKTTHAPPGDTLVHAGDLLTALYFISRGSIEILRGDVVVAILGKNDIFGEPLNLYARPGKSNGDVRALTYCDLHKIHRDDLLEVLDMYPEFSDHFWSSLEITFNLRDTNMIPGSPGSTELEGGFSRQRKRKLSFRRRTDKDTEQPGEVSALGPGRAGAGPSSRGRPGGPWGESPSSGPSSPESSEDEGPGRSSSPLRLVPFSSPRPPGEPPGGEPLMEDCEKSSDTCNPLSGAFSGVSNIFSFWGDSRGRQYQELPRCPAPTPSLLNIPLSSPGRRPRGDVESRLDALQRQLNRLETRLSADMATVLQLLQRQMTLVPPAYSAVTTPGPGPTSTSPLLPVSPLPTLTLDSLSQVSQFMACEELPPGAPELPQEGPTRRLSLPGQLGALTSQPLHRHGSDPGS

SMILES | hERG current change (%, negative = inhibition) at 10uM
O=C(C[n+]1cccc(O)c1)Nc1ccc(Br)cc1.O=S(=O)([O-])c1ccc2ccccc2c1 | 23.7%
CC(=O)c1cnc2n(c1=O)CCS2 | 27.8%
C/C(=N\N=C1\NC(=O)C(CC(=O)NCc2ccccc2)S1)C(C)C (centres unmarked) | 14.5%
COC(=O)C1=C(C)N(CCc2ccc(OC)c(OC)c2)C(=O)/C1=C\N(C)C | 1.86%
Cc1cc2c(ccc3[nH]onc32)n1 | 16.8%
Cc1cc(=O)[nH]c2c(C)cc(S(=O)(=O)N3CCOCC3)cc12 | 9.66%
COc1cc(CC(NC(C)=O)C(=O)NC2CCN(c3c(Cc4ccccc4)c(C)nc4ncnn34)CC2)cc(OC)c1 (centres unmarked) | 12%
O=C(NC(=S)N1CCCCCC1)c1cccc([N+](=O)[O-])c1 | 3.51%
O=C(NC(=S)Nc1ccc2[nH]c(=O)[nH]c2c1)c1ccccc1F | 24.1%
CCCCn1c(-c2ccco2)nc2oc3ccccc3c(=O)c2c1=O | -29.2%
O=C(CCC1CCCC1)Nc1cccc(Cc2ccncc2)c1 | -44.2%
O=S(=O)(NCc1cccnc1)c1ccc(Br)c2ccccc12 | -9.45%
O=C(OCC(=O)N1CCN(C(=O)c2ccco2)CC1)c1ccc(S(=O)(=O)N2CCCCC2)cc1 | -30.6%
CCOc1ccccc1NC(=O)CSc1ccccc1 | -5.11%
CC1(C)NC(=O)N(CCCCSc2ccc(Cl)cc2)C1=O | -20.8%
Cc1nn(Cc2ccc(Cl)cc2)c2sc(C(=O)OCC(N)=O)cc12 | -52.1%
Cc1nn(C)cc1S(=O)(=O)N1CCCCC1C (centres unmarked) | -1.81%
Cc1cc(C(=O)OC(C)C(=O)Nc2nc(-c3ccccc3)cs2)c(C)o1 (centres unmarked) | 2.18%
O=C(Nc1nc2c(F)cccc2s1)c1ccc([N+](=O)[O-])o1 | 19.7%
COC(=O)c1ccc(CSc2nc(C(F)F)cc(C)c2C#N)o1 | -10.5%
O=C(O)CCN1C(=O)/C(=C/c2ccc(-c3nc4ccccc4s3)o2)SC1=S | -1.51%
Cc1ccc2nc(-c3ccc(SCC(=O)O)nc3)[nH]c2c1 | 21.2%
CCOc1ccc(N=C(NC#N)SC)cc1 | 2.66%

SMILES | hERG current change (%, negative = inhibition) at 10uM
CCC(C)(NC(=O)c1ccccn1)C(=O)NC1CCCC1 (centres unmarked) | 12.8%
O=C(CCn1c(=O)oc2ccccc21)NCCCN1CCCC1=O | 12%
Cc1ccc(NC(=O)Cc2ccccc2)c(C)c1 | 18.4%
COc1cc(N=Nc2cccc(S(N)(=O)=O)c2)c2ccccc2c1N | 11.8%
Cc1c(O)nc2ccccn2c1=O | -2.92%
CSc1cccc(NC(=O)CN(Cc2ccc(Cl)cc2)S(C)(=O)=O)c1 | -8.76%
COc1ccc(NC(=O)NNC(=O)c2ccc3ccccc3c2O)cc1OC | 19.3%
O=C(NCCc1ccncc1)c1ccccc1F | 6.54%
CCc1c(C#N)c(N)nc(SCC(=O)OCc2ccccc2)c1C#N | 3.41%
COc1ccccc1S(=O)(=O)NCc1ccc(C(=O)NC2CCC(O)CC2)cc1 (centres unmarked) | 7.54%
CC(OC(=O)/C=C/c1ccccc1)C(=O)Nc1cccc(C#N)c1 (centres unmarked) | 15.2%
CCN(CC)C(=O)CN(C#N)c1nc(NC(C)C)nc(NC(C)C)n1 | 7.58%
COc1ccc(N2CCN(C(=O)COC(=O)CCOc3ccc(C)cc3)CC2)cc1 | 9.09%
COc1cccc2sc(N)nc12 | 10.9%
Cc1c(Br)c([N+](=O)[O-])nn1CC(=O)Nc1ccccn1 | -14.7%
CC(C)NC(=O)C1CCN(C(=O)C(C(=O)c2ccccc2)n2cc(Cl)ccc2=O)CC1 (centres unmarked) | 6.17%
Nc1c2c(nc3ccc(Br)cc13)N(Cc1ccccc1)CC2 | -43.5%
CCN(Cc1ccccc1)C(=O)c1cccc(S(=O)(=O)N2CCN(c3ccccc3)CC2)c1 | -15.8%
CCCCn1c(N)c(N(CCOC)C(=O)CSc2ccccc2C)c(=O)[nH]c1=O | -26.6%
COC(=O)c1c(NC(=O)C2CCCO2)sc2c1CCC2 (centres unmarked) | -3.4%
Cc1cc(C(=O)NC(C)CCc2ccccc2)ccc1[N+](=O)[O-] (centres unmarked) | -29.5%
C#CCNC(=O)C1=C[C@@H](c2ccc(Br)cc2)C[C@@H](OCc2ccc(CO)cc2)O1 | 16.6%
CCOC(=O)c1cc(-c2ccccc2)sc1NC(=O)CN1C(=O)c2ccccc2C1=O | 8.68%

SMILES | hERG current change (%, negative = inhibition) at 10uM
COc1ccc(N(CC(=O)NCc2cccs2)S(=O)(=O)c2ccc(F)cc2)cc1 | -0.742%
Clc1ccc(COn2c(-c3ccccc3)nc3ccccc32)cc1 | 5.78%
O=C(COC(=O)c1cccs1)Nc1nc(-c2ccccc2)cs1 | 4.55%
CC1CCN(S(=O)(=O)c2cc(Br)cc(C(=O)NC3=NCCS3)c2)CC1 | -4.17%
Clc1ccc(CSCCc2ccncc2)cc1.O=P(O)(O)O | -20.4%
C=C1C(C(=O)Nc2cccc(OC)c2)C1C(=O)Nc1cccc(OC)c1 (centres unmarked) | 10.1%
O=C(NCCCCCCNC(=O)C1CCCC1)C1CCCC1 | 5.1%
CCOC(=O)N1CCN(c2cc(=O)n(-c3ccc(OCC)cc3)c(=O)[nH]2)CC1 | 14%
CCN(CC)S(=O)(=O)c1cccc(-c2cn3cc(C)ccc3n2)c1 | -9.87%
COc1ccc(Nc2nc(N)c([N+](=O)[O-])c(N3CCOCC3)n2)cc1 | -16.7%
NC(=O)N1CC(O)CC1C(=O)Nc1ccc(Cl)c(Cl)c1 (centres unmarked) | 13.1%
Cc1cc(C)c2[nH]c(=O)c(C(c3nnnn3Cc3ccc4c(c3)OCO4)N3CCC(C)CC3)cc2c1 (centres unmarked) | 5.35%
COc1ccc(C(=S)N2CCN(c3cccc(Cl)c3)CC2)cc1 | -6.11%
CCCC(=O)Oc1ccccc1C1SCc2cc(C)c(C)cc2CS1 | 5.12%
COc1ccc(OC)c(/C=C/C(=O)NCCc2nc3ccccc3[nH]2)c1 | -22.7%
CCN(Cc1ccccc1)C(=O)CCS(=O)(=O)c1ccc2c(c1)CCN2C(C)=O | 1.14%
OCc1ccccc1CN1CCCCCC1 | -9.62%
CCOc1ccc(NC(=O)Nc2cccc(C(=O)O)c2)cc1 | 11%
COc1ccc(C(=O)NCc2c(C)oc(C)c2C(=O)O)cc1 | 25.7%
COc1ccc(CCNC(=O)CC2SC(=NCc3ccccc3)NC2=O)cc1 (centres unmarked) | -16.2%
Fc1ccc(-c2cn(-c3ccccc3)c3[n+]2CCS3)cc1.O.[Br-] | -45.3%
CC(C#N)(Nc1ccc(Cl)cc1)c1cccnc1 (centres unmarked) | -0.628%
Nc1ccc(-n2nnnc2-c2ccco2)cc1 | 9.11%

SMILES | hERG current change (%, negative = inhibition) at 10uM
CC(C)[C@H](NC(=O)N1CC(=O)Nc2ccccc21)C(=O)N[C@H](Cc1c[nH]c2ccccc12)C(=O)O | 4.53%
COc1ccc(-c2[nH]c(-c3cccc(OC)c3)nc2SCC(=O)NCc2ccco2)cc1 | -19.2%
COc1ccccc1NC(=O)CCN1CCN(C)CC1 | 24.8%
Cc1nc2c(=O)n(C)c(=O)nc-2n(C)n1 | -0.848%
CN(C)c1ccc(/C=C/C(=O)c2ccc3c(c2)OCCO3)cc1[N+](=O)[O-] | -1.04%
Cc1ccc(C(C(=O)NC2CCCC2)N(Cc2ccco2)C(=O)CCC(=O)Nc2ccccn2)cc1 (centres unmarked) | -40.1%
O=C(Nc1ccc2c(c1)CCC2)c1cc(F)cc(F)c1 | 11.4%
CCC(=O)N1N=C(c2ccccc2)CC1c1ccc([N+](=O)[O-])cc1 (centres unmarked) | -53.4%
COc1ccc(OCCCC(=O)N(CCC2=CCCCC2)c2c(N)n(Cc3ccccc3)c(=O)[nH]c2=O)cc1 | 17.4%
COc1ccccc1NC(=O)c1cc(C(=O)Nc2ccccc2OC)cc([N+](=O)[O-])c1 | 21.1%
CC1CCN(C(=O)c2cc(S(=O)(=O)N3CCOCC3)ccc2N2CCCC2)CC1 | -5.33%
Cc1cccc(N(CC(=O)Nc2cccnc2)S(C)(=O)=O)c1 | -0.187%
Cc1ccc(NC(=S)N2CCOCC2)c(C)c1 | 19.4%
CC(C)(C)NC(=O)C1CCC(CNc2c(N3CCCCC3)c(=O)c2=O)CC1 (centres unmarked) | 6.41%
COc1ccc(OCC(=O)Nc2ccc(S(=O)(=O)Nc3cc(C)on3)cc2)cc1 | -0.907%
O=C(NCc1ccc2c(c1)OCO2)c1nc(S(=O)(=O)Cc2ccccc2F)ncc1Cl | 1.45%
COc1cc(C(=O)Nc2ccc3c(c2)OCCO3)ccc1OC(F)F | -5.02%
O=C(COc1ccc(Cl)cc1)N1CCN(C(=O)c2cccc(F)c2)CC1 | -58.5%
CC(C(=O)N1CCc2ccccc21)N1CCN(c2ccccn2)CC1 (centres unmarked) | -6.29%
O=C(c1ccco1)N1CCN(c2ncnc3c(-c4ccc(Cl)cc4)nsc23)CC1 | 4.82%

From paper PMC4336329 (PLoS ONE, 2015)
